The target in this experiment is T1, extracellular domain of TNFR-1 (human, UniProt P19438 30-211).
T1 construct: The construct limits, tag, supplier and species are not restated there; also called TNFR1 extracellular domain; tumor necrosis factor receptor-1 (TNFR1)
T1 sequence: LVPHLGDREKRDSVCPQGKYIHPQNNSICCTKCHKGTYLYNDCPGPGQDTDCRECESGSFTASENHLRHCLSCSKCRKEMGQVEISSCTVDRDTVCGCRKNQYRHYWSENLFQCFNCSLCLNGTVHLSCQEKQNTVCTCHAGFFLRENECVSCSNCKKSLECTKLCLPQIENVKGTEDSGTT
The experiment in a line: SPR (Biacore), Vhh on TNFR1 extracellular domain. On the procedure:
Each of Vhh 1-4 subsequently was tested in binding studies using the surface plasmon resonance (SPR) method (Sciences GL. Biacore Assay Handbook. General Electric Company (2012); and Richter et al. (2019) MAbs 11:166-177). Competition assays of Vhh inhibition of TNF-a binding to TNFR1 extracellular domain also were performed as described in Richter et al. (2019).

Consider 1 molecule from patent publication US20220288226A1 (ENOSI LIFE SCIENCES, published 2022).

B1: Vhh-1 (VHH)
VHH: EVQLLESGGGLVQPGGSLRLSCAASGFTFDKYSMGWVRQAPGKGLEWVSQISDTADRTYYAH[left out - about 20 residues]MNSLRAEDTAVYYCAIYTGRWVPFEYWGQGTLVTVSS
notes: also called DOM1h-574-208; Recombinant human anti-TNFRSF1A single domain antibody
Turning to B1, the Kd was 0.43 nM.

The term Kd denotes the equilibrium constant for the complex coming apart. Low values mean a tighter complex, high ones a looser complex.
